Results: publication PMC4336329 (PLoS ONE, 2015)
Out of some 310,000 compounds screened, about 2,200 (0.71%) showed an effect of 50% or more. Effects have a minus sign here. Some of the results follow.

Molecular target: human ether-à-go-go-related gene (hERG) potassium channel (human, UniProt Q12809)
Assay: primary screen, population patch clamp on CHO cells stably expressing hERG

Chain of human ether-à-go-go-related gene (hERG) potassium channel (Q12809 whole entry, looked up): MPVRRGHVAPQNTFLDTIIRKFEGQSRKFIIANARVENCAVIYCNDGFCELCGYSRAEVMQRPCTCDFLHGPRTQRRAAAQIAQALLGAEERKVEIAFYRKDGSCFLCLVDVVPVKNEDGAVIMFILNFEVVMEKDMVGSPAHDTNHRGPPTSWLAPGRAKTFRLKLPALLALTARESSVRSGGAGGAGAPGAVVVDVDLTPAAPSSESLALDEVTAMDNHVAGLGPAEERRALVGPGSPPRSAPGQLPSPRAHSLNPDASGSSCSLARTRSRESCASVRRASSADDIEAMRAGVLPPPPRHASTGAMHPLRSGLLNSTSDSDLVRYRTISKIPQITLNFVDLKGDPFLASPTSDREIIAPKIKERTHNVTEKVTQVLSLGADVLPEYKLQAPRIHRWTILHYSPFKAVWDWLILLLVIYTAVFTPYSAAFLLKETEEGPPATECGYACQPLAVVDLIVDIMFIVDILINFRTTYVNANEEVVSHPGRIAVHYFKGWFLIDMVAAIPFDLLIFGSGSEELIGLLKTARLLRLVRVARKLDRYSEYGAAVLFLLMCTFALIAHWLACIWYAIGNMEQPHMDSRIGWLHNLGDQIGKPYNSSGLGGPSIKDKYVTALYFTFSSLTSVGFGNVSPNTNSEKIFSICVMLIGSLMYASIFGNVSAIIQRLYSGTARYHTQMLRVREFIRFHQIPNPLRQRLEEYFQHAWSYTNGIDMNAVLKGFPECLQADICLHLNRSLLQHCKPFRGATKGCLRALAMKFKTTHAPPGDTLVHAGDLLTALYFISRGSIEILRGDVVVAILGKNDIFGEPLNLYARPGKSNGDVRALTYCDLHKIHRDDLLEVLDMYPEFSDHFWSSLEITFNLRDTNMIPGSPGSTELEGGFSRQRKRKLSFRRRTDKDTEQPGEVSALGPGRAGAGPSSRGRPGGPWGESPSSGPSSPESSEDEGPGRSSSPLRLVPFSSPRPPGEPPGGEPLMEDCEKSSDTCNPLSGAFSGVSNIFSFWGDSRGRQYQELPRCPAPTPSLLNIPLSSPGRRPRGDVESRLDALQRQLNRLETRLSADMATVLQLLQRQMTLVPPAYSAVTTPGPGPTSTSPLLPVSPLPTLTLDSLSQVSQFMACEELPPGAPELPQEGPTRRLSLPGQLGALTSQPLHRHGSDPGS

SMILES	hERG current change (%, negative = inhibition) at 1uM [%]
CC1=NN(c2ccc(Br)cc2)C(=O)/C1=C/c1cccs1	16.8
O=C(NCc1ccccn1)c1nc(Cn2cc([N+](=O)[O-])cn2)no1	9.44
CCOC(=O)C1=C(C)N(C)C(C)=C(C(=O)OCC)C1c1ccsc1	20.9
CC(C)c1ccc(CCNC(=O)CCNC(=O)c2ccc(Br)cc2)cc1	8.08
CC(C)(C)c1ccc(OCC(O)CN2CCN(C(=O)c3ccccc3)CC2)cc1.O=C(O)C(=O)O (stereo not shown)	-9.74
CC(C)Nc1ccc(C(CC(N)=O)NC(=O)c2ccc(Br)cc2)cc1[N+](=O)[O-] (stereo not shown)	9.08
O=C(COc1ccc2ccccc2c1)NNC(=O)Cc1ccccc1	15
CCc1cc(=O)oc2cc(OCC(=O)NCc3ccccn3)ccc12	7.89
Cc1ccc(OCCCN2C(=O)C(=O)c3cc(C)ccc32)cc1	6.9
Cc1sc(NC(=O)CN(Cc2ccccc2)C(=O)C(C)C)c(C(N)=O)c1C	2.32
COc1ccc2[nH]c3c(c2c1)CC(C)NC3=O (stereo not shown)	14.9
CCOc1ccc(C(=O)N(CC)CC(=O)Nc2ccc3c(c2)OCCO3)cc1OCC	4.59
Cc1ccc(CNC(=O)c2ccc3c(=O)n4c(-c5ccc(C)cc5)csc4nc3c2)cc1	10.4
COc1cccc(/C=N/NC(=O)c2cc(-c3cccn3C)n[nH]2)c1	4.76
CC(=O)COc1nc2c(c(-c3ccco3)c1C#N)CCc1ccccc1-2	11.6
CSCc1ccc(C(=O)N2CCCC(Nc3ccc(F)cc3)C2)o1 (stereo not shown)	3.79
COc1ccccc1C(=O)N1C(CC(=O)Nc2ccc(C)c(C)c2)C(=O)NC2CCCCC21 (stereo not shown)	10.1
O=C(CSc1ncn[nH]1)N1c2ccccc2Sc2ccccc21	9.21
CCOc1cc(C(C(=O)NCC2CCCO2)N(C(=O)Cn2nnc3ccccc32)c2cccc(OC)c2)ccc1O (stereo not shown)	9.93
COC(=O)C1=C(C(=O)OC)[C@@H]2N(Cc3ccccc3)c3ccccc3[C@@]23C[C@@H](C(=O)OC)N(C(=O)c2cccs2)C3=N1	9.3
CN(CCC(=O)Nc1cc(S(=O)(=O)N(C)C)ccc1Cl)CC(=O)Nc1ccc(F)cc1	-18.6
Cc1cc(C(=O)N/N=C/c2cc(N=Nc3ccccc3)ccc2O)n[nH]1	16.9

SMILES	hERG current change (%, negative = inhibition) at 1uM [%]
Cc1ccc(C(=O)NC2CCN(CC(=O)Nc3c(C)cc(C)cc3C)CC2)cc1	10.4
C[C@@H](C(=O)NCC1CC1)[C@@H]1C[C@@]1(C)[C@@H](NC(=O)OCc1ccccc1)c1ccccc1	13
Cc1cc(C)c(S(=O)(=O)c2ccccc2)c(OC(=O)c2c(Cl)cc(Cl)cc2Cl)n1	4.44
O=Cc1cccc(Oc2ccc([N+](=O)[O-])cc2[N+](=O)[O-])c1	5.01
O=S(=O)(Nc1ccc(O)c(NS(=O)(=O)c2ccccc2)c1)c1ccccc1	12.6
COCC(C)NC(=O)CSc1nc2ccccc2c(=O)n1CCc1ccc(S(N)(=O)=O)cc1 (stereo not shown)	9.59
C=CCNc1nc(-c2sc(NC(C)=O)nc2C)cs1	10.7
Cc1cc(C)c(S(=O)(=O)N(CC(=O)O)CC(=O)O)c(C)c1	6.69
Cc1c(C(=O)N/N=C/C(C)C)[nH]c2c([N+](=O)[O-])cccc12	7.17
Cc1c(Cl)cccc1NC(=S)N1CC2CC(C1)c1cccc(=O)n1C2 (stereo not shown)	2.25
O=C(NCc1ccc(F)cc1)Nc1cccc(Cl)c1	9.25
O=C(CN1CCc2ccccc2C1)NC1CCCC1	10.8
Cc1cc(NC(=O)CSc2nc3ccsc3c(=O)n2Cc2ccccn2)n[nH]1	-0.106
CCOC(=O)c1c(C)c(-c2ccccc2)n(CC(=O)NCCCN(CC)CC)c1C	7.29
COC(C(=O)Nc1ccc(S(=O)(=O)Nc2cccc3ccccc23)cc1)c1ccccc1 (stereo not shown)	5.54
CCC(C)Sc1ccc([C@H]2N[C@@](CC(C)C)(C(=O)OC)[C@H]3C(=O)N(C)C(=O)[C@@H]23)cc1.O=C(O)C(F)(F)F (stereo partly shown)	7.91
CCCC(C)n1[nH]c(=O)cc1N (stereo not shown)	5.09
O=C(c1ccc(N2CCCCC2)c([N+](=O)[O-])c1)N(c1ccccn1)c1ccccn1	4.89
CCOC(=O)C1CCCN(CC(=O)Nc2c(C(=O)OC)[nH]c3ccccc23)C1 (stereo not shown)	14.5
Clc1ccccc1N1CCN(Cc2ccc3c(c2)OCO3)CC1.O=C(O)C(=O)O	13.2
COc1cccc(NC(=S)N2CCN(S(C)(=O)=O)CC2)c1	13
CC(C)(C)C1=C[C@@H](CO)C[C@@H](CO)C1	9.08

SMILES	hERG current change (%, negative = inhibition) at 1uM [%]
CCc1c(C)nc2ncnn2c1Nc1ccc(C#N)c(Cl)c1	-22.7
COc1ccc(CC(=O)OCN2C(=O)c3ccccc3C2=O)cc1	4.3
NC(=O)C1(N2CCCCC2)CCN(C(=O)CSc2nc3ccccc3[nH]2)CC1	11.3
CCOC(=O)c1oc2nc(CC(C)C)c3c(c2c1N)CCC3	9.98
Cc1noc(C)c1COc1ccc(C(=O)N2CCCC(C(F)(F)F)C2)cc1 (stereo not shown)	-8.81
CC(Oc1ccc(Cl)cc1)C(=O)Nc1ccc(S(=O)(=O)N2CCOCC2)cc1 (stereo not shown)	5.73
CC(=O)/C(C#N)=C1\NC(=O)C(Cc2cc(Cl)ccc2Cl)S1 (stereo not shown)	11.4
COc1ccc(Nc2nc(-c3cccc(OC)c3O)nc3ccccc23)cc1	17.2
O=C(c1cc(=O)[nH]c2ccccc12)N1CCN(c2cccc(C(F)(F)F)c2)CC1	-2.59
CCOc1ccc(C(=O)n2cc(C(=O)OC)c3ccccc32)cc1	10.8
CC1CCCN(c2ccc(C(=O)NCc3ccc4c(c3)OCO4)cc2[N+](=O)[O-])C1 (stereo not shown)	12.8
CN(C)c1ccc(/C=N/NC(=O)CN2CCN(c3ccc(F)cc3)CC2)cc1	11.1
COc1ccc(-n2nc(C(=O)NCC(=O)NCCCN3CCCCCC3)c3ccccc3c2=O)cc1Cl	0.584
Cc1cccc(/C=N/n2c(-c3ccco3)n[nH]c2=S)c1	0.426
O=C(Nc1sc2c(c1C(=O)O)CCCC2)C(=O)N1CCOCC1	27.9
O=S(=O)(c1ccc2ccccc2c1)N1CCN(C(=S)Nc2ccc(F)cc2)CC1	1.98
COc1ccc(C)c(Cn2c(-c3nonc3N)nc3ccccc32)c1	3.31
Cc1c(NC(=O)C(C)OC(=O)c2ccc(Cl)nc2)c(=O)n(-c2ccccc2)n1C (stereo not shown)	-2.42
O=C(NC(=S)Nc1ccc(N2CCCCC2)cc1)c1cccs1	-0.035
Cc1cc(C(=O)OCC(=O)Nc2cc(C)on2)c2ccccc2n1	0.152
Cc1ccc(NC(=O)c2cccc(N3C(=O)CCC3=O)c2)nc1	9.48
O=C(C[n+]1ccc(C(=O)NCCCO)cc1)c1cccc(Br)c1.[Br-]	13.1

SMILES	hERG current change (%, negative = inhibition) at 1uM [%]
O=C(NCCCN1CCOCC1)C(=O)N/N=C/c1ccccc1	-1.86
CCN(CC)C(=O)Oc1ccc(Br)c2ccccc12	4.72
O=C1CCCC2=C1C(c1cccs1)Nc1ccc3ncccc3c12 (stereo not shown)	-8.63
Cc1ccc(C(=O)N/N=C\c2ccc(Br)o2)o1	11.6
O=C(CSc1nc2ncccc2[nH]1)NCc1ccco1	9.04
Cc1cc(S(=O)(=O)NCCCN2CCOCC2)ccc1F	5.62
CCC/C=N/NC(=O)C1COc2ccccc2O1 (stereo not shown)	11.5
Cc1noc(NS(=O)(=O)c2ccc(NC(=O)c3ccc(N4C(=O)c5ccccc5C4=O)cc3)cc2)c1C	14.6
COc1ccc(OC)c(NC(=O)CSc2nnc(CNC(=O)COc3ccc(Cl)cc3)o2)c1	2.4
CSc1ccccc1C(=O)NCCCOC(C)C	-1.34
O=C(O)CSc1nc2c(cnn2-c2ccccc2)c(=O)n1-c1ccc(Br)cc1	6.81
Cc1cc(NC(=O)Cn2nc(C(F)(F)F)c3c2CCC3)no1	17.1
Cc1c(C(=O)Nc2ccc(F)cc2)oc2ccc(S(=O)(=O)N3CCC4(CC3)OCCO4)cc12	2.31
COc1cccc2cc(C(=O)NCCN3CCOCC3)c(=O)oc12	5.56
COc1cccc(N2CCN(S(=O)(=O)c3ccc(-c4coc(C)n4)cc3)CC2)c1	11.7
COC(=O)c1ccc(-c2n[nH]c(=O)c3ccccc23)cc1	-4.95
C=CCNC(=O)c1ccc(C(=O)c2ccccc2)cc1	-6.75
Cc1ccccc1OCc1n[nH]c(=S)n1-c1cccc(Cl)c1	14.7
Cc1csc(N(C(=O)c2ccc(S(=O)(=O)N(C)C)cc2)c2ccccc2)n1	9.95
